Measured values taken from article PMC11952801.
No constants are given. Whether binding was seen depends on the method and setting. In cells and extracts the contact can be indirect. Some binding calls cover weakened binding; strength is not graded here. For some of these results: Where a sequence is shown, tags or fusion partners need not be part of it.

Protein sequences, listed by entry. Tags and fused reporters are not part of them.
UniProt Q9LTB8: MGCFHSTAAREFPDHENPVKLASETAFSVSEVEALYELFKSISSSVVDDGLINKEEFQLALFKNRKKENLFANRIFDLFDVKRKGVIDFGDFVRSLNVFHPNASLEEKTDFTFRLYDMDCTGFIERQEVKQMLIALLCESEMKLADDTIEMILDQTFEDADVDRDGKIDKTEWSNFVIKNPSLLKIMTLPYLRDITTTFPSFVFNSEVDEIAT

Columns and labels:
[1] = target: T1, P2K1-nYFP (Arabidopsis thaliana) (UniProt Q9LSR8); experiment: split reporter; BiFC; nYFP and cYFP fusions in Arabidopsis protoplasts (PEG-mediated transformation), 21 °C for 24 h in the dark; YFP fluorescence by microscopy, FM4-64 as plasma membrane marker
T1 sequence: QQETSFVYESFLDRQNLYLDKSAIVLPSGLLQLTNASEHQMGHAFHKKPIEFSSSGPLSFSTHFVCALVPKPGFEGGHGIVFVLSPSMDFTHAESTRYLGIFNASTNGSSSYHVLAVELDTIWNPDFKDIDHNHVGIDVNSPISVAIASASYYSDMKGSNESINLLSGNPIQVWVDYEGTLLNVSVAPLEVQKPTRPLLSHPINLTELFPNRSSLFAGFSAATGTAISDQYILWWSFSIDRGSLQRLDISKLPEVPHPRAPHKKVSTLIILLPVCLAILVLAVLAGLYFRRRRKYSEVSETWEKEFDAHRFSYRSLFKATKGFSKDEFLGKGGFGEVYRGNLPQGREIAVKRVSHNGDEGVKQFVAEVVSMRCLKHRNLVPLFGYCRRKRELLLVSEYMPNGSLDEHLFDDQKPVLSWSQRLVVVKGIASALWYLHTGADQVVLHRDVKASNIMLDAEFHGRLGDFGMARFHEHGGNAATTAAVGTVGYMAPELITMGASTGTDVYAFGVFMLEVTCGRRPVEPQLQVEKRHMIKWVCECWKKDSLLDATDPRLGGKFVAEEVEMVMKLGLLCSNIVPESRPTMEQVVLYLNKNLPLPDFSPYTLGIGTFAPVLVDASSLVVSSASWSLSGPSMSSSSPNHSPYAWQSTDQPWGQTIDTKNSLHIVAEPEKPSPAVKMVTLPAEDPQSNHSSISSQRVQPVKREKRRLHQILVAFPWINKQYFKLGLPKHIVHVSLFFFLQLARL

[2] = target: T2, P2K1-nLUC (Arabidopsis thaliana) (UniProt Q9LSR8); experiment: split reporter; split-luciferase complementation imaging (LCI); nLUC and cLUC fusions driven by the CaMV 35S promoter, co-infiltrated into 4-week-old N. benthamiana leaves; 3 days at 28 °C; 5 mM D-luciferin sprayed; luminescence by CCD camera; also with added ATP
T2 sequence: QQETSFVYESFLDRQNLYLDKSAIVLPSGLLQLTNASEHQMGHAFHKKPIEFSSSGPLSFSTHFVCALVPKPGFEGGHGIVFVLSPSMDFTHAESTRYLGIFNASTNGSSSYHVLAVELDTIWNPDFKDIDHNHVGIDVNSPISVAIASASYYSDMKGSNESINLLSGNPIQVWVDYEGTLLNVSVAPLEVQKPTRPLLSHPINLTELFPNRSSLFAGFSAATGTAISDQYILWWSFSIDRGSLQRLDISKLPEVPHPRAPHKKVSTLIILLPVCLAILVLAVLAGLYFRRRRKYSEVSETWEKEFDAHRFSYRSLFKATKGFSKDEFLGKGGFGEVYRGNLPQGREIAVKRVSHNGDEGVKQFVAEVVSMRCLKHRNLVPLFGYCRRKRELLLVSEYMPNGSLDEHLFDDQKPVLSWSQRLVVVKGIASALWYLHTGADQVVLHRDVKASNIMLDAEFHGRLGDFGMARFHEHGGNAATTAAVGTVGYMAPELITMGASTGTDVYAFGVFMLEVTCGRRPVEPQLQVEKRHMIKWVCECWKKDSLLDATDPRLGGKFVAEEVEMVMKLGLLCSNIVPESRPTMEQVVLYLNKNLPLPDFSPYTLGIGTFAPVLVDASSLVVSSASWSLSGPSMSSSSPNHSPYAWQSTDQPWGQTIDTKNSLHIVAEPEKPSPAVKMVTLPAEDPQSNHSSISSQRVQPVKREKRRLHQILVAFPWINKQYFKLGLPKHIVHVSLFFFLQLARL

[3] = target: T3, P2K1 (construct of the validation tests listed in Table 1 not told) (Arabidopsis thaliana) (UniProt Q9LSR8); experiment: split reporter; BiFC as listed in Table 1 for BHLH134; no reference and no further description given
T3 sequence: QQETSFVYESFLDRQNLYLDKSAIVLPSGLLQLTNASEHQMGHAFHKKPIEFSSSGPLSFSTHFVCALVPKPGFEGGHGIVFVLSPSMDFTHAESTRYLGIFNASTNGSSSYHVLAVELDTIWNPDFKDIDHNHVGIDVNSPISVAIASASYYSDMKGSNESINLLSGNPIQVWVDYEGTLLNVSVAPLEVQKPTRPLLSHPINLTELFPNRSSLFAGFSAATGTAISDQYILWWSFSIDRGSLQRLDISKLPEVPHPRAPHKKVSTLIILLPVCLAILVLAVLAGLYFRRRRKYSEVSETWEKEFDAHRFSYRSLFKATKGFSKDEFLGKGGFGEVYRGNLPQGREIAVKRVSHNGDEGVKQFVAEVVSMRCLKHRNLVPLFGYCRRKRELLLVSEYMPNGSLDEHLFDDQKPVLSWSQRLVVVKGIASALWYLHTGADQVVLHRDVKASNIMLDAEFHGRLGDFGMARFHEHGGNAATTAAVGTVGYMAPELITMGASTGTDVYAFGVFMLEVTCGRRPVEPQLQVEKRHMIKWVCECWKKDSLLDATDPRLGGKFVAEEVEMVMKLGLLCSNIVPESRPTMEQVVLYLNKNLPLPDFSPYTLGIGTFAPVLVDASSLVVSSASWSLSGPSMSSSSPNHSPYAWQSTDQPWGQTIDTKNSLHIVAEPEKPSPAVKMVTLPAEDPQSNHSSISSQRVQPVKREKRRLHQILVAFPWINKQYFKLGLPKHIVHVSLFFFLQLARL

[4] = target: T3, P2K1 (construct of the validation tests listed in Table 1 not told) (Arabidopsis thaliana); experiment: split reporter; LCI assay as listed in Table 1 for candidates of the 2k KiC screen; no reference and no further description given
[5] = target: T3, P2K1 (construct of the validation tests listed in Table 1 not told) (Arabidopsis thaliana); experiment: pull-down; GST pull-down assay as listed in Table 1 for BHLH134; no reference and no further description given

Molecule: CBL9-cYFP (from UniProt Q9LTB8 1-213)
- binding [1]: binds

Molecule: CBL9 (split-luciferase fusion) (from UniProt Q9LTB8 1-213)
- binding [2]: binds

B1: GPA1 (split-luciferase fusion) (protein, UniProt P18064 1-383)
chain: MGLLCSRSRHHTEDTDENTQAAEIERRIEQEAKAEKHIRKLLLLGAGESGKSTIFKQIKLLFQTGFDEGELKSYVPVIHANVYQTIKLLHDGTKEFAQNETDSAKYMLSSESIAIGEKLSEIGGRLDYPRLTKDIAEGIETLWKDPAIQETCARGNELQVPDCTKYLMENLKRLSDINYIPTKEDVLYARVRTTGVVEIQFSPVGENKKSGEVYRLFDVGGQRNERRKWIHLFEGVTAVIFCAAISEYDQTLFEDEQKNRMMETKELFDWVLKQPCFEKTSFMLFLNKFDIFEKKVLDVPLNVCEWFRDYQPVSSGKQEIEHAYEFVKKKFEELYYQNTAPDRVDRVFKIYRTTALDQKLVKKTFKLVDETLRRRNLLEAGLL
- binding [2]: binds

B2: BHLH134 (At5g15160) (protein, UniProt Q9LXG5 1-94)
chain: MSSSRRSRQASSSSRISDDQITDLISKLRQSIPEIRQNRRSNTVSASKVLQETCNYIRNLNKEADDLSDRLTQLLESIDPNSPQAAVIRSLING
- binding [3]: binds
- binding [4]: binds
- binding [5]: binds

B3: ILK5-cLUC (enzyme, UniProt Q93Z30 1-459)
chain: MEEDYQQPRFTIGRQSSMAPEKIPEPSVHSEEEVFEDGEEIDGGVRLMYLANEGDIEGIKELIDSGIDANYRDIDDRTALHVAACQGLKDVVELLLDRKAEVDPKDRWGSTPFADAIFYKNIDVIKILEIHGAKHPMAPMHVKTAREVPEYEINPSELDFTQSKEITKGTYCMAMWRGIQVAVKKLDDEVLSDDDQVRKFHDELALLQRLRHPNIVQFLGAVTQSNPMMIVTEYLPRGDLRELLKRKGQLKPATAVRYALDIARGMSYLHEIKGDPIIHRDLEPSNILRDDSGHLKVADFGVSKLVTVKEDKPFTCQDISCRYIAPEVFTSEEYDTKADVFSFALIVQEMIEGRMPFAEKEDSEASEAYAGKHRPLFKAPSKNYPHGLKTLIEECWHEKPAKRPTFREIIKRLESILHHMGHKRQWRMRPLTCFQNFEHKKKHNWDLSSHDGSSSGSHL
- binding [2]: binds
